# Experimental data reported in publication PMC6753376.
# The source holds more than one record for some entries. This list holds those alone. There may be further records. Some protein pairs were linked at several places, one record each.
# Assays:
# Assay in all cases: cross-linking mass spectrometry
# Conditions in all cases: lysate
# CCT2 = CCT2 (UniProt P78371)
# CCT3 = CCT3 (UniProt P49368)
# CCT4 = CCT4 (UniProt P50991)
# MCM7 = MCM7 (UniProt P33993)
# PSME2 = PSME2 (UniProt Q9UL46)
# SMC4 = SMC4 (UniProt Q9NTJ3)
# Sequence of UniProt Q9NTJ3 (Q9NTJ3 whole entry): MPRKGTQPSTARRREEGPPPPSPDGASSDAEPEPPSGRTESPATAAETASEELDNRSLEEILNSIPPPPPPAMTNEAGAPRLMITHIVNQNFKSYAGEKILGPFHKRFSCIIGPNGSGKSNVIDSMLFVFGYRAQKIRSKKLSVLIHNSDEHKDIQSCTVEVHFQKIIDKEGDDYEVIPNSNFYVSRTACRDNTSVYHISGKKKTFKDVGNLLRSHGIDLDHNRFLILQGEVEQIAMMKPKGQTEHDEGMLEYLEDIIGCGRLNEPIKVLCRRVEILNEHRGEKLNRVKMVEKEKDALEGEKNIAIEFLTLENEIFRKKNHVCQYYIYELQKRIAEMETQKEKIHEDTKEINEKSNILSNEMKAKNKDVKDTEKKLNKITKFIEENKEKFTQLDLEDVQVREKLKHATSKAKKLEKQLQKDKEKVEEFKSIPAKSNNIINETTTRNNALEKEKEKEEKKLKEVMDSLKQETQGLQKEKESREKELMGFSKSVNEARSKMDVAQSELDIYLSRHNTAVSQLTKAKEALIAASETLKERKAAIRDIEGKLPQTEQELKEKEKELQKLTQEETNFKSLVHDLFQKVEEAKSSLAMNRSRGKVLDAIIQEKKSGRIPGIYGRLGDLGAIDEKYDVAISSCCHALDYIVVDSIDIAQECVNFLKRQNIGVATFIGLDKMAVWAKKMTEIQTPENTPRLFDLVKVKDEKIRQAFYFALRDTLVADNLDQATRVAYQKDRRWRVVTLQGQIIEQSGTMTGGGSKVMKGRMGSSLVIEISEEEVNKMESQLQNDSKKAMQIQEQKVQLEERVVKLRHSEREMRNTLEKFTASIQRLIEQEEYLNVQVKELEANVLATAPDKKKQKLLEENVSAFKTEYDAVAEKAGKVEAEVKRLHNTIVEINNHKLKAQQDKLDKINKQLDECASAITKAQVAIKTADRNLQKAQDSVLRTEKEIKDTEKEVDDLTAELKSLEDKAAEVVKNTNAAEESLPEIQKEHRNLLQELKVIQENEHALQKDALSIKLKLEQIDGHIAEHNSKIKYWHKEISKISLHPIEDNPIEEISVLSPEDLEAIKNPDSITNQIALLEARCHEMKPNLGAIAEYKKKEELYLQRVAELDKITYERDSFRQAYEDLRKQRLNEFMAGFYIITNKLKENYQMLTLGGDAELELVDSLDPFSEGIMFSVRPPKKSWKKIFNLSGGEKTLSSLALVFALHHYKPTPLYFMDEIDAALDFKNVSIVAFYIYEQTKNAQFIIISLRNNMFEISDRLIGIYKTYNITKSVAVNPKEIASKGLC
# Sequence of UniProt P78371 (P78371 whole entry): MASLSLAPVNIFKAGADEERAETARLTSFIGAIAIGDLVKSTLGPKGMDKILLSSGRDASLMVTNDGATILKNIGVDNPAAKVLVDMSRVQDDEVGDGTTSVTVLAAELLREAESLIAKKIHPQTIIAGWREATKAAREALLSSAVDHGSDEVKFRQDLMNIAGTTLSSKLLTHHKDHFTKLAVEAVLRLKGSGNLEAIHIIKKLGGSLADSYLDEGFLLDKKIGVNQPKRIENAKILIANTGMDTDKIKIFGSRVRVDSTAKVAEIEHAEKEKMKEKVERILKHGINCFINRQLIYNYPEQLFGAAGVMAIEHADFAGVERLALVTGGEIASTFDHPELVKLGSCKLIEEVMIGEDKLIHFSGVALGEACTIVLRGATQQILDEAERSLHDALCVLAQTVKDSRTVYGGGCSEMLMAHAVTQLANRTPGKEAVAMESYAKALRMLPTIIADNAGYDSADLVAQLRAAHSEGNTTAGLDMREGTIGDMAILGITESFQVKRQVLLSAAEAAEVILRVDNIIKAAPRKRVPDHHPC
# Sequence of UniProt P49368 (P49368 whole entry): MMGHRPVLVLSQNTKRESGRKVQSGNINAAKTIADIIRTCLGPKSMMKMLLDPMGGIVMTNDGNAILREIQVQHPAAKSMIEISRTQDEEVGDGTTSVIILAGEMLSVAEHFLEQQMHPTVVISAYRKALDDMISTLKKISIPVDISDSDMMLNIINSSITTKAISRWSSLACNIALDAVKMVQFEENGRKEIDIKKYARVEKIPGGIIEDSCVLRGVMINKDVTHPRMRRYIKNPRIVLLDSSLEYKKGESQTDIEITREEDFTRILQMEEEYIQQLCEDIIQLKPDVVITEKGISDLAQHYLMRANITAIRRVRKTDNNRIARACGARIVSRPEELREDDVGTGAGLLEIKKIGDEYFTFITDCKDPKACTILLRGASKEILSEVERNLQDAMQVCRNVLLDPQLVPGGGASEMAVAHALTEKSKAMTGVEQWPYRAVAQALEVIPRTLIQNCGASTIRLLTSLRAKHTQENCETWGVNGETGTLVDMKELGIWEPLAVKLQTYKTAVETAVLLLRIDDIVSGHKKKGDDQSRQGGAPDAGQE
# Sequence of SMC2 (O95347 whole entry): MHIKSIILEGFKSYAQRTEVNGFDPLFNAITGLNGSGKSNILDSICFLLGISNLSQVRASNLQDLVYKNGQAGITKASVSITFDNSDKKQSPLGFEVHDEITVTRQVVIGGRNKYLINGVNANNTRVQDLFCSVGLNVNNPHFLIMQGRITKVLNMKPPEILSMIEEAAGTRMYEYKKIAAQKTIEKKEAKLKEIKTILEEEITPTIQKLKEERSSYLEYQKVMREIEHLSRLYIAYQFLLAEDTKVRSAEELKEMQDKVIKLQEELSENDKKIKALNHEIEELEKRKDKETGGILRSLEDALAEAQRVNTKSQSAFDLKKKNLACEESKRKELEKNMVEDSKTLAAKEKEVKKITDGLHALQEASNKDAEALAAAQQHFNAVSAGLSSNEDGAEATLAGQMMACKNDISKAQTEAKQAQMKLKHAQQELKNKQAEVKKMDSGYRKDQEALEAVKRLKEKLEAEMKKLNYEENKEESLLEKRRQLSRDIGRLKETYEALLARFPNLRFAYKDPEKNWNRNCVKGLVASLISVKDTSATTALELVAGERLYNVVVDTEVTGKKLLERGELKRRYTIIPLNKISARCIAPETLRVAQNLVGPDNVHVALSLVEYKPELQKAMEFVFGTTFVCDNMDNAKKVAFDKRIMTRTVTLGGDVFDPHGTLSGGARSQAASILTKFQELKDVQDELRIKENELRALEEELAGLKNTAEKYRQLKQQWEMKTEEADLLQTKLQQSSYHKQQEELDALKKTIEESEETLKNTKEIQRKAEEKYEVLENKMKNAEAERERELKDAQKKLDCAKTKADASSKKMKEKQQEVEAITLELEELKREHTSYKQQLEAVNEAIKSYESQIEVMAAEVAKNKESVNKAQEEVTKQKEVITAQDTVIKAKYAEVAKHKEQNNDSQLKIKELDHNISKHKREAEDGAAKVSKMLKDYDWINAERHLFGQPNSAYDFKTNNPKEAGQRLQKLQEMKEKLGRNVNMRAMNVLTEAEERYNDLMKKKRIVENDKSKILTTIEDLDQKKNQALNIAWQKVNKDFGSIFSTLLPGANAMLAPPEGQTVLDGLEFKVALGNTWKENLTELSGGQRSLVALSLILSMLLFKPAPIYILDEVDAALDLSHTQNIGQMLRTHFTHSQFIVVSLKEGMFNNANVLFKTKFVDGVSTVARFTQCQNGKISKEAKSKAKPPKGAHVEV
# Sequence of TCP1 (P17987 whole entry): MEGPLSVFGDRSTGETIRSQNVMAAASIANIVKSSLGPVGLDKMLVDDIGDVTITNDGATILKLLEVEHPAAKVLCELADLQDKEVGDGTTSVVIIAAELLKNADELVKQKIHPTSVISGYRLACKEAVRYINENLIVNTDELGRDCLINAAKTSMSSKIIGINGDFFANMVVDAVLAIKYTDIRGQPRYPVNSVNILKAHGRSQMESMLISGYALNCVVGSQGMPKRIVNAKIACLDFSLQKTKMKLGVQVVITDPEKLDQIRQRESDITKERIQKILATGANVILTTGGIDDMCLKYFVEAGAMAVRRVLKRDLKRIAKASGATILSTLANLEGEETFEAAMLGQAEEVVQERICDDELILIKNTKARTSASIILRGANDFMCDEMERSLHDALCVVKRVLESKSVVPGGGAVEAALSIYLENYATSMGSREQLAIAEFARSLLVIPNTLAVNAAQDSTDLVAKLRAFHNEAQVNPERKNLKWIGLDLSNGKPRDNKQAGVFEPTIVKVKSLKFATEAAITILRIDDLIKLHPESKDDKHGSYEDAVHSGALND
# Sequence of CCT5 (P48643 whole entry): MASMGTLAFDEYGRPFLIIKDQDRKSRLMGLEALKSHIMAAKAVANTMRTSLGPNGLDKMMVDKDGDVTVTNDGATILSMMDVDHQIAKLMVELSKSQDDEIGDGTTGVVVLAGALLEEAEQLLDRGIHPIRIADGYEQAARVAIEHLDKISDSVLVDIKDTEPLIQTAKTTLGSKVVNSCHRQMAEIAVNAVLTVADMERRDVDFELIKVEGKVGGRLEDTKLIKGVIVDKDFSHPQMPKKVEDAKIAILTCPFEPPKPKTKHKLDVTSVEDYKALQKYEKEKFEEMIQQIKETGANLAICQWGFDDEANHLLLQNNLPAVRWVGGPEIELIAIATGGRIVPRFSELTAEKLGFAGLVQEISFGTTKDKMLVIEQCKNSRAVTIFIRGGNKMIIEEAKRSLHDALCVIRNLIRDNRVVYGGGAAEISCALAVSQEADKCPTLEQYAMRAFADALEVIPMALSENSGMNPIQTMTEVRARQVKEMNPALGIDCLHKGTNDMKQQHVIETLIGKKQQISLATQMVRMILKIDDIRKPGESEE
# Sequence of UniProt Q9UL46 (Q9UL46 whole entry): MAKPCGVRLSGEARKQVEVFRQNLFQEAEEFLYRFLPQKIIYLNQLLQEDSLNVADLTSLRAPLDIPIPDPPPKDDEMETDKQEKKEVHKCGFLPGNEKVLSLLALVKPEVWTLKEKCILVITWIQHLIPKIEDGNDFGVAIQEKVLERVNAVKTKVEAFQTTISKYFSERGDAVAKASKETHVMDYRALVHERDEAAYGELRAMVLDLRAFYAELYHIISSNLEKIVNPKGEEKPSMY
substance,measurement,setting,value
"CCT4, P50991",cross-linked residues,CCT2,P2 - K120 and P2 - K522 and S9 - K522 and K21 - K120 and K21 - K522 and K29 - K120
"CCT5, P48643",cross-linked residues,CCT2,K275 - K284 and K368 - K342 and K368 - K402
"CCT6A, P40227",cross-linked residues,CCT3,K10 - K21 and K530 - K381
"TCP1, P17987",cross-linked residues,CCT3,K63 - K529 and K494 - K128
same,cross-linked residues,CCT4,K126 - K55 and K532 - P2
"MCM4, P33991",cross-linked residues,MCM7,K409 - K174 and K627 - K596
"PSME1, Q06323",cross-linked residues,PSME2,K187 - K180 and K190 - K177 and K190 - K180
"SMC2, O95347",cross-linked residues,SMC4,K320 - K405 and K493 - K573 and K911 - K1009 and K930 - K1031
